{"source": "ChEMBL document CHEMBL4888484", "about": "“Replenishing the malaria drug discovery pipeline: Screening and hit evaluation of the MMV Hit Generation Library 1 (HGL1) against asexual blood stage Plasmodium falciparum ,using a nano luciferase reporter read-out” (2022)", "note": "Out of some 150,000 compounds screened, about 540 (0.36%) showed an effect of 50% or more. The list shows a part of the results.", "data": [{"system": "Plasmodium falciparum", "assay": "Primary screen in NF54 nanoGlo assay, in single point, at 2uM, 72h; a lower Z score goes with more inhibition", "format": "functional, Erythrocyte", "conditions": "timepoint 72 hour", "units": {"% Inhibition": "%"}, "values": [{"smiles": "Fc1cccc(F)c1-c1nc(CN(Cc2ccccn2)C2CC2)co1", "% Inhibition": -7, "Z score": 0.76}, {"smiles": "COc1cc2c(cc1CNC(=O)c1ccco1)OCCCO2", "% Inhibition": -16, "Z score": 2.2}, {"smiles": "COc1ccccc1NC(=O)c1ccc(-c2noc(C3CCCC3)n2)cc1", "% Inhibition": -8, "Z score": 1.43}, {"smiles": "CCN(C(=O)c1nnn(Cc2cc(C)no2)c1C)[C@@H](C)C(F)(F)F", "% Inhibition": -3, "Z score": 0.56}, {"smiles": "Cc1cc2ncn(-c3cc(C(=O)O)cc(S(=O)(=O)N4CCOCC4)c3)c2cc1C", "% Inhibition": -1, "Z score": 0.17}, {"smiles": "CC[C@@](C)(C(=O)NC1CCCC1)N(C(C)=O)c1ccc(C)cc1", "% Inhibition": -4, "Z score": 0.81}, {"smiles": "Cc1cccc(Cn2c(=O)c(C(=O)NCc3ccccn3)nn(-c3cccc(F)c3)c2=O)c1", "% Inhibition": -2, "Z score": 0.21}, {"smiles": "c1cc(OCCO[C@@H]2CCCCO2)cc(-n2ccnn2)c1", "% Inhibition": -9, "Z score": 0.92}, {"smiles": "CCc1c[nH]c2ncnc(NCc3cccc(CO)n3)c12", "% Inhibition": -8, "Z score": 1.3}, {"smiles": "COc1c(C)cnc(CN2CC[C@]3(CCCO3)CCC2=O)c1C", "% Inhibition": -15, "Z score": 1.86}, {"smiles": "C[C@H]1Cc2cc(-n3ccnc3-c3cc4n(n3)CCCNC4)ccc2O1", "% Inhibition": 0, "Z score": 0.07}, {"smiles": "COC(=O)c1nc(NC(=O)c2cccnc2)sc1-c1ccccc1Cl", "% Inhibition": -10, "Z score": 1.44}, {"smiles": "CS(=O)(=O)c1ccc(C2(c3nc([C@H]4CCOC4)no3)CCC2)cc1", "% Inhibition": -8, "Z score": 1.29}, {"smiles": "Cc1cc(C#N)nc(N2CC(C)(C)OC[C@@H]2C)n1", "% Inhibition": -8, "Z score": 1.47}, {"smiles": "O=C(O)C1C2C=CC(C2)C1C(=O)N1CCN(c2cccc(Cl)c2)CC1", "note": "(centres undefined)", "% Inhibition": 4, "Z score": -0.51}, {"smiles": "CN(Cc1nnc2n1CCC2)C(=O)C1=Cc2ccccc2OC1", "% Inhibition": -45, "Z score": 5.33}, {"smiles": "O=C(NCc1cccc(C(F)(F)F)c1)c1cc2n(n1)CCN(Cc1ccc(C(F)(F)F)cc1)C2=O", "% Inhibition": -8, "Z score": 1.34}, {"smiles": "COc1ccc2cc(C(=O)N3CCC(CC(=O)NCC[C@H](C)N4CCCC4)CC3)[nH]c2c1", "% Inhibition": -18, "Z score": 1.69}, {"smiles": "Cn1c(=O)[nH]c(=O)c2c1nc(N1CCN(CC=Cc3ccccc3)CC1)n2Cc1cccc(Cl)c1", "% Inhibition": -4, "Z score": 0.78}, {"smiles": "CN1N=C(C(=O)N2CCC[C@H](Nc3ccc4c(c3)OCCO4)C2)CCC1=O", "% Inhibition": -12, "Z score": 2.17}, {"smiles": "CCN(CC(N)=O)c1nc(C(C)C)nc(N(C)C)n1", "% Inhibition": 14, "Z score": -1.84}, {"smiles": "Cc1nn(-c2ccccc2)c2sc(-c3noc(-c4ccccc4)n3)cc12", "% Inhibition": 10, "Z score": -1.2}, {"smiles": "FC(F)(F)c1ccc(N2CCCN(Cc3nc4ccccc4o3)CC2)nc1", "% Inhibition": -8, "Z score": 0.8}, {"smiles": "CC(C)(C)c1cc([C@H](c2ccc(Cl)cc2)N2CCCCC2)cc(C(C)(C)C)c1O", "% Inhibition": 31, "Z score": -0.27}, {"smiles": "C=CCC[C@@H](CN(C)CC(=O)N(C)C)Oc1nccc(N(C)CC)n1", "% Inhibition": -7, "Z score": 0.77}, {"smiles": "O[C@@H]1COCCN(Cc2ccccc2F)C1", "% Inhibition": -8, "Z score": 1.53}, {"smiles": "Cc1ccc(CN2CCCN(c3ncnc4c3cnn4C)CC2)cc1", "% Inhibition": -8, "Z score": 1.19}, {"smiles": "CN1C[C@@H]2CN(C(=O)CCc3ccccc3)CCN2C(C)(C)C1", "% Inhibition": 32, "Z score": -3.63}, {"smiles": "Cc1nn2c3c(c(C(=O)O)nc2c1-c1ccccc1)CCO3", "% Inhibition": -16, "Z score": 1.49}, {"smiles": "O=S(=O)(CCC(F)(F)F)N1C2CCC1CC(n1cccn1)C2", "note": "(centres undefined)", "% Inhibition": -15, "Z score": 1.9}, {"smiles": "COC(=O)[C@H]1CCn2c(CCC3CCCCC3)nnc2C1", "% Inhibition": -4, "Z score": 0.61}, {"smiles": "CCN(Cc1ccc(N(C)C)cc1)C(=O)c1cnn(-c2ccc(=O)[nH]n2)c1C", "% Inhibition": 0, "Z score": 0.02}, {"smiles": "O=C(c1ccc2cn[nH]c2c1)N1CCN(c2cccc(Cl)c2)CC1", "% Inhibition": -9, "Z score": 0.91}, {"smiles": "COc1ccc(Nc2ncnc3c(-c4ccc(C)cc4)noc23)c(OC)c1", "% Inhibition": -4, "Z score": 0.6}, {"smiles": "Cc1cc(=O)[nH]c(N2CCC[C@H](NS(=O)(=O)CC3CCC3)C2)n1", "% Inhibition": 19, "Z score": -2.36}, {"smiles": "Cc1cnccc1CN(C)C(=O)c1cccc(S(=O)(=O)N2CC(O)C2)c1", "% Inhibition": -6, "Z score": 1.15}, {"smiles": "Nc1sc(Cc2cccc(Cl)c2)c[n+]1CC(=O)c1ccc(F)cc1", "% Inhibition": 27, "Z score": -3.07}, {"smiles": "C[C@@H](c1cccc(C(F)(F)F)c1)S(=O)(=O)Cc1cnn(C(C)(C)C)c1", "% Inhibition": -28, "Z score": 3.31}, {"smiles": "CCc1ccc(CN(C)C[C@H](C)n2cncn2)nc1", "% Inhibition": -14, "Z score": 1.89}, {"smiles": "CNC(=O)Nc1cccc(NC(=O)NC)n1", "% Inhibition": -7, "Z score": 0.78}, {"smiles": "Cc1ccc(F)c(N2CCC(NC(=O)c3nn(-c4ccccc4)c(C)cc3=O)CC2)c1", "% Inhibition": -2, "Z score": 0.27}, {"smiles": "O=C(CCc1ccc2c(c1)OCCO2)Nc1cccc(C(=O)NC2CC2)c1", "% Inhibition": -7, "Z score": 0.95}, {"smiles": "CCC(=O)[C@@H]1CCCCN1C(=O)c1ccn2ccnc2c1", "% Inhibition": -12, "Z score": 1.63}, {"smiles": "N#Cc1ccc(CNC(=O)NCC(=O)N2CCCC2)c(F)c1", "% Inhibition": -13, "Z score": 1.68}, {"smiles": "Cc1noc(C)c1C[C@H](C)NC(=O)Nc1cnn(C(C)C)c1", "% Inhibition": -3, "Z score": 0.33}, {"smiles": "Cn1nc2c(c1CNCc1ccco1)CCC2", "% Inhibition": -12, "Z score": 1.41}, {"smiles": "O[C@H]1CC[C@@H](c2nc(C3CC3)nn2-c2ccc(Cl)cc2)CC1", "% Inhibition": -10, "Z score": 1.15}, {"smiles": "Cc1ccnc(NC(=O)[C@H](Cc2ccccc2)NS(=O)(=O)c2ccc3c(c2)c(=O)n(C)c(=O)n3C)c1", "% Inhibition": 1, "Z score": -0.13}, {"smiles": "Cc1nc(-c2cccnc2)nc(NCc2nnc3n2CCCCC3)c1C", "% Inhibition": -8, "Z score": 1.03}, {"smiles": "CCC(CC)C(=O)Nc1ccc(Oc2c(C)c(C(=O)O)nn2CC)c(S(=O)(=O)N[C@@H](C)CC)c1", "% Inhibition": -17, "Z score": 1.68}, {"smiles": "O=C(NCC(=O)N1CCC[C@H](c2[nH]ncc2-c2ccccc2)C1)c1ccccc1", "% Inhibition": -14, "Z score": 1.68}, {"smiles": "COc1ccccc1N1CCN(C(=O)c2sc(N3CCCC3=O)nc2C(C)C)CC1", "% Inhibition": -12, "Z score": 1.09}, {"smiles": "O=C(O)c1ccc(C(=O)N(C[C@H]2CCCO2)C2CCCC2)cn1", "% Inhibition": -7, "Z score": 1.05}, {"smiles": "COc1ccc(-c2nc3ccc(C(=O)NC[C@H]4CCCO4)cc3nc2-c2ccc(OC)c(OC)c2)cc1OC", "% Inhibition": 13, "Z score": -1.53}, {"smiles": "Cc1cccc(CNC(=O)c2nc(-c3oc4c(C)cccc4c3C)no2)c1", "% Inhibition": -9, "Z score": 1.17}, {"smiles": "Cc1ccc(Br)cc1CNC(=O)NCCCO", "% Inhibition": -7, "Z score": 1.35}, {"smiles": "CCc1ccc(C(=O)NC(C)(C)CN(C)C)[nH]1", "% Inhibition": -2, "Z score": 0.45}, {"smiles": "O=C(c1ccccc1-n1ccnn1)N1Cc2cn[nH]c2C1", "% Inhibition": -8, "Z score": 1.59}, {"smiles": "Cc1cccc(N2CCN(C(=O)Cn3ncn4nc(-c5ccccc5)cc4c3=O)C[C@@H]2C)c1", "% Inhibition": -28, "Z score": 2.49}, {"smiles": "O=C(Nc1cccc(N2CCCC2=O)c1)c1cccc2ccccc12", "% Inhibition": -9, "Z score": 1.85}, {"smiles": "O=C(CN1CCCCCC1)N1CCCN(C(=O)C(F)(F)F)CC1", "% Inhibition": -8, "Z score": 0.86}, {"smiles": "O=C(CCc1ccsc1)N1CCC(c2nc3cc(Cl)ccc3o2)CC1", "% Inhibition": -8, "Z score": 1.45}, {"smiles": "NC(=O)c1nnn(-c2cccnc2)c1N", "% Inhibition": -12, "Z score": 1.63}, {"smiles": "Cc1nc(C(=O)NC[C@H]2CN(c3nncs3)CCO2)c(C)s1", "% Inhibition": 37, "Z score": -5.36}, {"smiles": "Cc1ccc(S(=O)(=O)Nc2cnc(N3CCNCC3)c(C(=O)NC(C)C)c2)c(C)c1", "% Inhibition": 1, "Z score": -0.1}, {"smiles": "CC(=O)N1CC[C@H]2CN(S(=O)(=O)c3ccccc3)C[C@@]2(CO)C1", "% Inhibition": -12, "Z score": 1.68}, {"smiles": "Cc1nnc2c(N3CCN(C(=O)c4ccsc4)CC3)nccn12", "% Inhibition": -18, "Z score": 3.15}, {"smiles": "Cc1ccc(N(C)Cc2nc3ccccc3c(=O)[nH]2)c(C)c1", "% Inhibition": -6, "Z score": 0.78}, {"smiles": "O=C(c1ccncn1)N1C2CCC1Cn1c(nn(CC3CC3)c1=O)C2", "note": "(centres undefined)", "% Inhibition": -6, "Z score": 0.85}, {"smiles": "Cc1ccccc1N1CCC(N[C@@H](C)CCCC(C)(C)O)CC1", "% Inhibition": -25, "Z score": 2.26}, {"smiles": "COc1ccc(NC(=O)c2ccc(-c3noc(C4CCCC4)n3)cc2)cc1", "% Inhibition": -13, "Z score": 1.3}, {"smiles": "COc1ccccc1C1(CNC(=O)c2cc3c(s2)CCC3)CCOCC1", "% Inhibition": -17, "Z score": 1.78}, {"smiles": "COc1ccc(Oc2nc(N3CCC(C)CC3)nc3c2CN(C(=O)c2ccccc2OC)CC3)cc1", "% Inhibition": 18, "Z score": -2.2}, {"smiles": "CC(=O)c1cccc(C(=O)N2C[C@@H]3CC[C@H]2CN(S(=O)(=O)N(C)C)C3)c1", "% Inhibition": -9, "Z score": 1.8}, {"smiles": "Cc1cc(C)cc([C@@H](O)CNC(=O)c2cncnc2-c2ccccc2)c1", "% Inhibition": -16, "Z score": 1.44}, {"smiles": "Cc1ccc(S(=O)(=O)NC(C(=O)OC(C)C(=O)N2CCOCC2)C(C)C)cc1C", "note": "(centres undefined)", "% Inhibition": 2, "Z score": -0.32}, {"smiles": "COC1(CNC(=O)Nc2ccc(C)cn2)CCC1", "% Inhibition": -7, "Z score": 1.3}, {"smiles": "Cc1cc(CN(C)C(=O)c2ccc(C#N)c(C)n2)no1", "% Inhibition": -7, "Z score": 0.83}, {"smiles": "O=C(C1CCN(c2ccc(F)c(F)c2)C1=O)N1CCCC(c2nnn[nH]2)C1", "note": "(centres undefined)", "% Inhibition": 4, "Z score": -0.74}, {"smiles": "CN(C)c1ccc([C@H](CNC(=O)c2cccc(Cl)c2)N2CCOCC2)cc1", "% Inhibition": 3, "Z score": -0.48}, {"smiles": "Fc1ccccc1-c1noc(-c2nc(-c3ccncc3)no2)n1", "% Inhibition": -24, "Z score": 2.17}, {"smiles": "CC(C)Oc1ccc(C(=O)N2CCC(c3nnc(C(F)(F)F)o3)CC2)cc1", "% Inhibition": -6, "Z score": 0.95}]}]}
